Reference: patent US20050163773A1, “Methods and pharmaceutical compositions for dopaminergic modulation of t-cell adhesion and activity” (priority 2001, published 2005)

System: Jurkat T-cell leukemia cells
Experiment: Proliferation of Jurkat T-cell leukemia cells (CyQuant)
Type: cell-based, human
Settings: 48 hours
Description: FIGS. 18A-C depict the proliferation of resting normal human and cultured Jurkat T-cells induced by physiological concentrations of DPAT. […] Numbers of T-cells were evaluated using the CyQuant cell proliferation assay kit (Molecular Probes), according to the manufacturer instructions. FIG. 18A represents a calibration of the CyQuant cell kit, showing the linear relationship between the fluorescent intensity and untreated human T-cell number. Note the similar maximal enhancement of T-cell proliferation with 10^−10M DPAT in purified normal human (18B) and cultured Jurkat T-cells (FIG. 18C).

Compound: CCCN(CCC)C1CCc2ccc(O)cc2C1 (centres unmarked) [DPAT, 7-Hydroxy-DPAT]
- DPAT concentration of maximal enhancement of proliferation, Jurkat T-cells: 10^−10 M
- proliferation of Jurkat T-cell leukemia cells relative to untreated cells (DPAT 10^−8 M to 10^−10 M): up to 5 times that of untreated cells
